Experimental data reported in PubChem BioAssay AID1468 (National Center for Advancing Translational Sciences (NCATS), 2008).
Screen size: about 280,000 compounds; about 1,100 (0.39%) were called active. Inconclusive results, whose numbers are uncertain, are shown with a selection of clear calls. The call rests on the fitted dose curve; in most records, active means well fitted inhibition curve with a large enough effect; inconclusive means small, poorly fitted or top-dose-only effect, or effect the other way; inactive means flat fitted curve, though single readings scatter. A potency beside an inconclusive call is a rough fit, not a confirmed value.

biological target: Microtubule-associated protein tau (Homo sapiens) (UniProt P10636); assay: qHTS for Inhibitors of Tau Fibril Formation, Fluorescence Polarization; details: K18 P301L tau heparin fibrillization, Alexa594 FP, 6 h; series mostly up to 57.7 µM; further: nearly all actives have a fitted effect of over 55% in size
How it was run: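 Human K18 P301L fragment (15 uM unlabeled plus 0.24 uM Alexa 594-labeled) in 100 mM sodium acetate pH 7 with compound, aggregation induced by 20 uM heparin for 6 hr at 37 C. ThT (30 uM) added for 1 hr, then Alexa 594 FP read.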
Potency means the concentration at half of the fitted maximal effect; tags describe the fitted curve by direction and shape.

Chain of UniProt P10636 (P10636 whole entry, looked up, the tested form may be a part): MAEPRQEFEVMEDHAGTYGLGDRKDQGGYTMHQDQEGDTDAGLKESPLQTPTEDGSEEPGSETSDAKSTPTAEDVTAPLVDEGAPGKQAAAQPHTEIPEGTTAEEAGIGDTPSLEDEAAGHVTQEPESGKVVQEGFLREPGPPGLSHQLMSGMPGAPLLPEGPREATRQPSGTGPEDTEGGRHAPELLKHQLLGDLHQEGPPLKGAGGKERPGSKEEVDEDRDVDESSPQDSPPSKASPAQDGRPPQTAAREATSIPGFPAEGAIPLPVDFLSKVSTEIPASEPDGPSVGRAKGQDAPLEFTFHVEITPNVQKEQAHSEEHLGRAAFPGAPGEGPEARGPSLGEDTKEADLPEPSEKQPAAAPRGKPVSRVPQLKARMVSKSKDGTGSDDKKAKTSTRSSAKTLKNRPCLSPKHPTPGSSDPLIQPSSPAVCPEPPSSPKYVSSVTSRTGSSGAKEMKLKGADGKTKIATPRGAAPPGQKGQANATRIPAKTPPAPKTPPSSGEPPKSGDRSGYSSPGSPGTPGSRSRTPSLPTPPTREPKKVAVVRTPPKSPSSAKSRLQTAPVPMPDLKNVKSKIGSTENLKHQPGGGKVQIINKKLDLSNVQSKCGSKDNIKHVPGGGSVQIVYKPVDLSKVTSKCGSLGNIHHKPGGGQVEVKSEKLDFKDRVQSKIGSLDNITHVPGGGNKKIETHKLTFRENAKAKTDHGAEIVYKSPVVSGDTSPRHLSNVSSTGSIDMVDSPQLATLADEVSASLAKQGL

Potency, inactive:
COc1ccc2nc(NC(C)=O)sc2c1
Cc1nc(C)c(-c2csc(N)n2)s1
Cc1cc(C(F)(F)F)nn1CC(=O)NNC(=S)Nc1cccc(Cl)c1
COc1ccc(NC(=O)CN2CCN(S(=O)(=O)c3ccc(Cl)cc3)CC2)cc1
CCn1c(C)nc2cc(C(=O)N/N=C(\C)c3ccccc3O)ccc21
CC(Sc1nnc2c(n1)C1(C)CCC2C1(C)C)C(=O)Nc1ccccc1 (configuration not stated)
N#CC(C#N)=C(N)/C(C#N)=C/c1ccc(O)cc1
Cc1ccc(-c2cc(C(=O)Nc3ccc(SC(F)F)cc3)no2)cc1F
CN(c1ccccc1)S(=O)(=O)c1cccc(C(=O)Nc2ccc3c(c2)CCC3)c1
COc1ccc(OCC(=O)c2c(O)c3ccccc3oc2=O)cc1
COc1ccc(C2=Nc3ccccc3NC(c3cccs3)=N2)cc1
COc1cccc(Nc2nc(=O)[nH]nc2C)c1
COc1cccc(CC2(CO)CCCN(S(=O)(=O)N(C)C)C2)c1 (configuration not stated)
Cc1ccc(CNC(=O)CSc2ncc3c(n2)-c2cc(Cl)ccc2N(C)S3(=O)=O)cc1

Potency, active:
C/C1=C2N=C(/C=C3N=C(/C(C)=C4\[N-]C(C)(C5N=C1C(C)(CCC(=O)NCC(C)OP(=O)([O-])O[C@H]1C(O)C(n6cnc7cc(C)c(C)cc76)O[C@@H]1CO)C5CC(N)=O)C(C)(CC(N)=O)C4CCC(N)=O)C(C)(CC(N)=O)C\3CCC(N)=O)C(C)(C)C/2CCC(N)=O.[CH2-]C1OC(n2cnc3c(N)ncnc32)C(O)C1O.[Co] (some centres not stated) 12.6 µM

Potency, inconclusive:
Cc1nc(NC(=O)c2ccccc2)sc1-c1csc(NCCc2ccccc2)n1 8.91 µM [activator, full curve, poor fit]
COCCNC(=O)Nc1ccc2nc(-c3ccco3)c(-c3ccco3)nc2c1 20 µM [inhibitor, partial curve]
COc1cc(NC(=O)c2csc(N)n2)cc(C(=O)Nc2cccc(C(F)(F)F)c2)c1 28.2 µM [inhibitor, partial curve, poor fit]
CSc1nn(Cc2ccc(C)cc2)c(N)c1S(=O)(=O)c1ccccc1 44.7 µM [inhibitor, single point]
CCOc1ccc2[nH]cc(S(=O)(=O)c3ccc(Cl)cc3)c(=O)c2c1 12.6 µM [inhibitor, partial curve]
COc1ccc(-c2csc(NC(=O)c3ccc(OCC(=O)N4CCOCC4)c(OC)c3)n2)cc1OC 39.8 µM [activator, single point]
O=C(Cn1nnc2c(cnn2-c2ccc(F)cc2)c1=O)c1ccccc1F 20 µM [inhibitor, partial curve]
COc1cc(NC(=O)C2CCCCC2)c(OC)cc1NC(=O)c1ccco1 31.6 µM [activator, single point]
CN(C(=O)COC(=O)c1cccnc1Nc1cccc(C(F)(F)F)c1)C1CCS(=O)(=O)C1 (configuration not stated) 15.8 µM [inhibitor, partial curve]
Cc1ccc(C(=O)Nc2cccc(C(F)(F)F)c2)cc1NC(=O)c1nccnc1N 31.6 µM [inhibitor, single point]
N#CC1=C2SCN(C3CCCCC3)CN2C(=O)CC1c1ccc(Cl)cc1 (configuration not stated) 28.2 µM [inhibitor, partial curve]
COc1ccc(NC(=S)NNc2ccc(S(=O)(=O)Nc3ccccc3C(=O)O)cc2[N+](=O)[O-])cc1 12.6 µM [inhibitor, partial curve, poor fit]
CCN(CC)S(=O)(=O)c1ccc(N2CCOCC2)c(NC(=S)NC(=O)c2ccco2)c1 7.94 µM [inhibitor, full curve, poor fit]
Nc1nc2ccc(S(=O)(=O)N3CCCCC3)cc2s1 28.2 µM [inhibitor, partial curve]
O=C(/C(=C/c1ccc(Cl)cc1)c1nc2ccccc2[nH]1)c1cccs1 10 µM [inhibitor, partial curve, poor fit]
NC(=O)COC(=O)c1oc2ccccc2c1CSc1ccc(Cl)cc1 22.4 µM [inhibitor, partial curve, poor fit]
CCn1c(-c2cc(-c3ccc(C)c(C)c3)nc3ccccc23)n[nH]c1=S 44.7 µM [inhibitor, single point]
N=c1c2c(n(Cc3ccc(Cl)c(Cl)c3)c3c1CCC3)CCCC2 2.51 µM [inhibitor, partial curve, poor fit]
Cc1ccc(-c2nc3sccn3c2Nc2ccc(C)c(C)c2)cc1 1.12 µM [activator, partial curve]
O=C(NCCc1cccs1)C1CC(c2ccccc2F)=NO1 (configuration not stated) 10 µM [inhibitor, partial curve, poor fit]
CC(=O)c1c(C(C)=O)c(C)n(-c2nc(-c3ccc(Br)cc3)c(C)s2)c1C 22.4 µM [inhibitor, partial curve]
O=C(CSCc1ccc(F)cc1)N1CCc2c([nH]c3ccccc23)C1c1ccc(Cl)cc1 (configuration not stated) 0.0708 µM [inhibitor, partial curve, poor fit]
COc1ccc(NC(=O)c2cc(C)cc(C)c2)cc1[N+](=O)[O-] 20 µM [inhibitor, single point]
Cc1ccc(S(=O)(=O)N2CCN(C(=O)c3cc(-c4ccc(Br)cc4)n[nH]3)CC2)c(C)c1 14.1 µM [inhibitor, partial curve]
CCCCc1ccc(NC(=S)Nc2ccc(Cl)c(S(=O)(=O)N(C)C)c2)cc1 39.8 µM [inhibitor, single point]
CCOc1ccc2[nH]c(=O)c(CN(CCCN3CCOCC3)Cc3nnnn3Cc3ccc(OC)cc3)cc2c1 3.16 µM [inhibitor, full curve, poor fit]
CCNS(=O)(=O)c1ccc(NC(=O)CSc2nc(-c3ccco3)cc(C(F)(F)F)n2)cc1 20 µM [inhibitor, partial curve]
Cc1cccc(Nc2nnc(-c3ccc(C)c(S(=O)(=O)N4CCCCC4)c3)c3ccccc23)c1 20 µM [inhibitor, single point]
CC(C)OC(=O)c1cccc(NC(=O)Cn2nnc3sc4c(c3c2=O)CCCC4)c1 17.8 µM [inhibitor, partial curve]
c1ccc2[nH]c(SN3CCOCC3)nc2c1 10 µM [inhibitor, partial curve]
CC(=O)Nc1ccc(S(=O)(=O)Oc2ccccc2N2CCCCC2)cc1 35.5 µM [inhibitor, single point]
Cn1c(N)c(C(=O)COC(=O)C2CCC(C(C)(C)C)CC2)c(=O)n(C)c1=O (configuration not stated) 39.8 µM [inhibitor, single point]
CCOc1ccccc1/C=c1\sc2nc(-c3ccco3)nn2c1=O 17.8 µM [inhibitor, partial curve]
CCCCN1C(=O)/C(=C/C=C2\SCCN2C)SC1=S 28.2 µM [activator, single point]
COC/C=C/C1=CC2=CC(=O)C(C)(OC(=O)c3cnc4ccccc4n3)C(=O)C2=CN1CCCCO (configuration not stated) 25.1 µM [inhibitor, partial curve]
Cn1nnc2cc(C(=O)NC(C)(C)C)ccc21 0.282 µM [inhibitor, full curve, poor fit]
COc1ccccc1NC(=O)Cn1c(SCC(=O)Nc2ccc(F)cc2)nc2ccccc21 28.2 µM [inhibitor, partial curve]
CCc1ccc(NC(=O)CC2C(=O)N(c3cccc(OC)c3)C(=O)N2Cc2ccc(F)cc2)cc1 (configuration not stated) 14.1 µM [inhibitor, partial curve]
CCN1CC(C)C(O)(c2ccccc2)CC1C (configuration not stated) 8.91 µM [inhibitor, single point]
O=C(COC(=O)c1ccc(NS(=O)(=O)c2cccs2)cc1)Nc1nc2c(F)c(F)c(F)cc2s1 14.1 µM [inhibitor, partial curve]
CCc1ccc(NC(=O)CC2C(=O)N(c3cccc(C)c3)C(=O)N2Cc2ccc(F)cc2)cc1 (configuration not stated) 39.8 µM [inhibitor, single point]
Cc1cc(C)cc(NC(=O)Cn2c(SCc3cc(C)ccc3C)nc3ccncc32)c1 11.2 µM [inhibitor, partial curve]
CC(C)(C)NC(=O)COC(=O)c1snc(C(=O)NC2CCCCC2)c1N 44.7 µM [activator, single point]
O=C(Cc1ccc(Cl)cc1)Nc1ccc2c(c1)C(=O)NC2=O 0.0794 µM [inhibitor, full curve, poor fit]
CCCCOc1ccc(CNC(=O)c2cccc(NC(=O)N3CCSc4ncccc43)c2)cc1 3.16 µM [inhibitor, partial curve, poor fit]
CCc1cc2cc3c(cc2nc1SCC(=O)Nc1nnc(C)s1)OCCO3 14.1 µM [inhibitor, partial curve, poor fit]
COc1cc(NC(=O)Cn2c(=O)n(CC3CCC(C(=O)NCCc4ccccc4)CC3)c(=O)c3ccccc32)cc(OC)c1 (configuration not stated) 25.1 µM [inhibitor, single point]
